# Measurements: PubChem BioAssay (NCATS)
# Inconclusive means that the source gave no clear call. Such entries were picked first, then a sample of the others. For some of these results: Potencies beside an inconclusive call are fits to weak or partial responses and may not hold up. Active and inactive are the calls of the source. Unless noted, calls come from the whole dose curve; as a rule, active = well fitted curve in the direction sought with a large enough effect; inconclusive = small, poorly fitted or top-dose-only effect, or another doubt; inactive = no such curve, though single readings can be large; an effect the other way counts as inactive or inconclusive.
# What was measured:
# [1] = qHTS to identify inhibitors of the type 1 interferon - major histocompatibility complex class I in skeletal muscle: primary screen against the NCATS Pharmaceutical Collection (AID 1347407); conditions: human skeletal muscle cells, IFN-b-induced MHC-I HiBiT luminescence, 24 h; series mostly up to 45.9 µM;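 note: luminescence of HiBiT knocked into endogenous HLA-B as interferon-induced MHC class I level; potency is the fitted concentration of half-maximal effect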
# How it was run: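 Compounds […] were added to CRISPR-engineered HLA-B-HiBiT C25cl48 human myoblasts with 4.0 ng/ml IFN-beta. After 24 hrs at 37 C, cells were lysed and HiBiT luminescence measured.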
# DIV14 = experiment: qHTS profiling for inhibitors of Plasmodium falciparum proliferation (AID 504749); note: nearly all actives have a fitted effect of over 60% in size; conditions: P. falciparum in erythrocytes, SYBR Green DNA, 72 h; series mostly up to 28.7 µM
# How it was run: (§1)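 Each compound contacts P. falciparum-infected red blood cells for 72 h at 37 C; lysis buffer (Tris, EDTA, saponin, Triton X, SYBR Green I) is added and fluorescence measured next morning; values normalized to controls.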
# DIV30 = experiment: as above; conditions: P. falciparum in erythrocytes, SYBR Green DNA, 72 h; series mostly up to 28.7 µM
# How it was run: as §1
# [2] = Drug repurposing screens with cells derived from glioblastoma tumor samples (AID 1345199); conditions: GBM patient neurospheres viability, ATP luminescence, 48 h; Potency: tumour line A unless noted; series mostly up to 46 µM; note: nearly all actives have a fitted effect of over 40% in size
# How it was run: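 Primary testing used CD133+ neurospheres from four GBM patients, seven concentrations, 48 h exposure and ATP-based viability; confirmation added three slower-growing patient lines.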
# [3] = qHTS of pediatric cancer cell lines to identify multiple opportunities for drug repurposing: Primary screen for TC32 cells (AID 1347089); note: potency is the fitted concentration of half-maximal effect; nearly all actives have a fitted effect of over 60% in size
# How it was run: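 Luminescent ATP read-out (CellTiter-Glo) of metabolically active TC32 cells after 48 h exposure. Concentration-response curves came from 11-point (MIPE, 0.78 nM–46 µM) or 8-point (NPC, 0.59 nM–46 µM) primary titrations; follow-up used 11 points.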
# [4] = Quantitative High-Throughput drug screen in 47 multiple myeloma cell lines against the NCATS MIPE library collection: LP1_DSMZ cell viability assay (AID 1918982); note: potency is the fitted concentration of half-maximal effect; nearly all actives have a fitted effect of over 35% in size
# How it was run: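 Cells were exposed to library compounds for 48 hours, after which ATP was measured by CellTiter-Glo. Signal was taken as median relative luminescence units.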
# [5] = qHTS for identification of novel therapeutic agents for treatment of microphthalmiaassociated transcription factor (MiT) renal cell carcinoma (RCC) (AID 1963991; calls by dose curve; note: potency is the fitted concentration of half-maximal effect); conditions: TFE3-RCC UOK109 viability, CellTiter-Glo, 48 h; active = Z-AUC below -0.8 in all three lines
# How it was run: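 Three TFE3-fusion RCC lines (UOK109, UOK124, UOK145), 500 cells/well in complete medium, were treated with MIPE 4.0 compounds for 48 hours at 37 C. Viability was by CellTiter-Glo luminescence, normalized to DMSO (100%) and empty wells (0%); curves fitted over 11 concentrations.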
# MCC-26 = experiment: qHTS assay to identify novel small-molecules to repurpose for Merkel cell carcinoma treatment (AID 1296009); conditions: MCC and control cell lines, CellTiter-Glo viability, 72 h; series mostly up to 46 µM; note: potency is the fitted concentration of half-maximal effect; nearly all actives have a fitted effect of over 60% in size
# How it was run: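 Dose-response viability screen; 72 hr exposure at 37 degree celsius; CellTiter-Glo added, 10 min room temperature, luminescence read; RLUs scaled between no-cell and DMSO wells.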
# [6] = qHTS of pediatric cancer cell lines to identify multiple opportunities for drug repurposing: Primary screen for DAOY cells (AID 1347090); conditions: DAOY medulloblastoma viability, CellTiter-Glo luminescence, 48 h; series mostly up to 46 µM; note: potency is the fitted concentration of half-maximal effect; nearly all actives have a fitted effect of over 55% in size
# How it was run: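 Viability measured as metabolically active cells via CellTiter-Glo luminescence following 48 hours of compound exposure, 11-point dilutions in confirmatory testing. 500-1,000 cells/well plated 5 hours before dosing; controls were DMSO and 2.3 µM bortezomib.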
# [7] = biological target: Protein phosphatase 1D (Homo sapiens) (UniProt O15297); experiment: Rhodamine-PBP qHTS Assay for Modulators of WT P53-Induced Phosphatase 1 (WIP1) (AID 1347425); note: potency is the fitted concentration of half-maximal effect
# How it was run: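 WIP1 (5 nM final) was preincubated with compound for 1 hour at room temperature. It then dephosphorylated 10 uM VEPPL-pS-QETFS peptide in Tris-HCl pH 7.5 with 30 mM MgCl2. Released Pi was detected by 10 uM Rh-PBP fluorescence (ex 525/em 598 nm) read at 1-min intervals for 11 min, as delta f1 - f0.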
# CP194 = experiment: qHTS profiling for inhibitors of Plasmodium falciparum proliferation (AID 504749); note: nearly all actives have a fitted effect of over 60% in size; conditions: P. falciparum in erythrocytes, SYBR Green DNA, 72 h; series mostly up to 28.7 µM
# How it was run: as §1
# CP305 = experiment: as above; conditions: P. falciparum in erythrocytes, SYBR Green DNA, 72 h; series mostly up to 28.7 µM
# How it was run: as §1
# Tags give direction and shape of the fitted curve.
# Chain of UniProt O15297 (O15297 whole entry, looked up): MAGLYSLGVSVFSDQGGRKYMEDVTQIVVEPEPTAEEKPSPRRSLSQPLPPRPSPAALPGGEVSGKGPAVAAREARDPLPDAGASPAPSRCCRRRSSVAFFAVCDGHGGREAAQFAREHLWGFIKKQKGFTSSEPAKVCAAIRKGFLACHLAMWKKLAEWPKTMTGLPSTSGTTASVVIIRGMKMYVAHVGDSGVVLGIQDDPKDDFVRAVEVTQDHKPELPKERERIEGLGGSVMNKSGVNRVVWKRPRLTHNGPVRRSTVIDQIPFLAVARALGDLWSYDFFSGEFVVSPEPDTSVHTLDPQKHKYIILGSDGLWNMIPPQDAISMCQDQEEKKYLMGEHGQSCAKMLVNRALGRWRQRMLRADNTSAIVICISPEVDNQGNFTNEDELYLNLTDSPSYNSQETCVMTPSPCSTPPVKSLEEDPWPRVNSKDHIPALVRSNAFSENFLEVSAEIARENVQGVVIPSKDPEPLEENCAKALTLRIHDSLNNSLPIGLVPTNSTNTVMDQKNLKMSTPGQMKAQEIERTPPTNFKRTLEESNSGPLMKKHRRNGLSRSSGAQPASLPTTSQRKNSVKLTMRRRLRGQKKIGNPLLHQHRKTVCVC
compound,measurement,setting,value
C#C[C@]1(O)CC[C@H]2[C@@H]3CCC4=Cc5oncc5C[C@]4(C)[C@H]3CC[C@@]21C,Potency,[1],"inconclusive: 4.19 µM [inhibitor, partial curve]"
same,Potency,DIV14,inactive
same,Potency,DIV30,inactive
same,Potency,[2],inactive
C=CC(=O)Nc1ccc2ncnc(Nc3ccc(OCc4cccc(F)c4)c(Cl)c3)c2c1,Potency,[3],active: 4.66 µM
same,Potency,[4],active: 5.9 µM
same,Potency,[5],active: 0.59 µM
same,Potency,MCC-26,"inconclusive: 2.96 µM [inhibitor, full curve]"
O=C1NCCN1CCN1CCC(c2cn(-c3ccc(F)cc3)c3ccc(Cl)cc23)CC1,Potency,[3],"inconclusive: 23.6 µM [cytotoxic, single point]"
same,Potency,[6],"inconclusive: 21.1 µM [cytotoxic, single point]"
same,Potency,[1],"inconclusive: 26.4 µM [inhibitor, single point]"
same,Potency,MCC-26,active: 21.1 µM
COc1ccc2cc1Oc1ccc(cc1)C[C@H]1c3c(cc4c(c3Oc3cc5c(cc3OC)CCN(C)[C@@H]5C2)OCO4)CCN1C,Potency,[3],"inconclusive: 5.92 µM [cytotoxic, partial curve]"
same,Potency,[1],"inconclusive: 37.4 µM [inhibitor, single point]"
CCCCCCc1ccc(O)cc1O,Potency,[7],"inconclusive: 39.8 µM [inhibitor, single point]"
same,Potency,CP194,inactive
same,Potency,CP305,inactive
Cc1cc(C(C)(C)C)c(O)c(C(C)(C)C)c1,Potency,[7],inactive
CCS(=O)(=O)N1CC(CC#N)(n2cc(-c3ncnc4[nH]ccc34)cn2)C1,Potency,[6],"inconclusive: 23.5 µM [cytotoxic, partial curve, poor fit]"
same,Potency,[4],"inconclusive: 6.62 µM [cytotoxic, partial curve, poor fit]"
same,Potency,[5],"inconclusive: 18.7 µM [falling, partial curve, poor fit]"
Cc1nc(N)ncc1-c1nc(N2CCOCC2)c2sc(C(C)(C)O)cc2n1,Potency,[3],active: 2.34 µM
same,Potency,[4],"inconclusive: 0.118 µM [cytotoxic, full curve]"
same,Potency,[5],"inconclusive: 0.132 µM [falling, full curve]"
same,Potency,MCC-26,"inconclusive: 5.9 µM [inhibitor, partial curve]"
